Experimental data: publication PMC4336329 (PLoS ONE, 2015)
The whole screen tested about 310,000 compounds, of which about 2,200 (0.71%) showed an effect of 50% or more. Effects have a minus sign here. The list shows a part of the results.

What follows are compounds tested against human ether-à-go-go-related gene (hERG) potassium channel (human, UniProt Q12809) (assay: primary screen, population patch clamp on CHO cells stably expressing hERG).
Sequence of human ether-à-go-go-related gene (hERG) potassium channel (Q12809 whole entry, looked up): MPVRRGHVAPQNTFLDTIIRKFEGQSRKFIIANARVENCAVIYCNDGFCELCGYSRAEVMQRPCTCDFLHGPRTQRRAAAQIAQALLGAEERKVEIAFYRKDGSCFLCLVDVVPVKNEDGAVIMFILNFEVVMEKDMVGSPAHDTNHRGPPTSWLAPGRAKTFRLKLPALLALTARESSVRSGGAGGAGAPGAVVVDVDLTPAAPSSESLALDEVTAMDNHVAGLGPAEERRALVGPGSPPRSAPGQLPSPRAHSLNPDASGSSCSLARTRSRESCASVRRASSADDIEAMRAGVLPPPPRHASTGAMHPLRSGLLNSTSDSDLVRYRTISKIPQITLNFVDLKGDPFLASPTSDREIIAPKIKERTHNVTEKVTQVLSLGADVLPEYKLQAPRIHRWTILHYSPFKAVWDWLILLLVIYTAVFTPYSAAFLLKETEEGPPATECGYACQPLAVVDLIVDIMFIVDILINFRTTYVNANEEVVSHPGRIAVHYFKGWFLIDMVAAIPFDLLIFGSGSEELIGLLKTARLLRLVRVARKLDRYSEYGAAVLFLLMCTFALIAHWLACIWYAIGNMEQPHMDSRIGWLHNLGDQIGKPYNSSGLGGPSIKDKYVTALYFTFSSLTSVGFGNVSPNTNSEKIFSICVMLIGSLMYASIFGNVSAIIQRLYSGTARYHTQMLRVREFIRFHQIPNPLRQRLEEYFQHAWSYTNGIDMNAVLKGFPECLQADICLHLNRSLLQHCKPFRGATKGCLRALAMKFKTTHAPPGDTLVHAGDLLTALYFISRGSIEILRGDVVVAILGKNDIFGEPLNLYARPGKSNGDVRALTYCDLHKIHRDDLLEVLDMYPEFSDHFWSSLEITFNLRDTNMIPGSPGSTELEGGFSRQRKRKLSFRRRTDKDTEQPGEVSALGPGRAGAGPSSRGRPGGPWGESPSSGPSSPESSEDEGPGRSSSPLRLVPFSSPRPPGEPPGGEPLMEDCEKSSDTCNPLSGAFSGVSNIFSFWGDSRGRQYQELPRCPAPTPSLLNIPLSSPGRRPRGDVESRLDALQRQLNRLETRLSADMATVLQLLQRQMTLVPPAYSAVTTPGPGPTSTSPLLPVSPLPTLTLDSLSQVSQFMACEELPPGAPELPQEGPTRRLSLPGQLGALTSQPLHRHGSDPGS
For `O=C(NCc1ccc(F)cc1)c1cnc(Cl)c(Cl)c1`, the “hERG current change (%, negative = inhibition) at 1uM” value was -6.15%. With `COc1ccccc1N1CCN(C(=O)c2ccc(CSc3ccccc3)cc2)CC1` the “hERG current change (%, negative = inhibition) at 1uM” value was 11.4%. `Cc1ccc(NC(=S)NCC2CCN(C(C)c3ccccc3)C2)cc1C` (stereo not drawn) was tested, and the “hERG current change (%, negative = inhibition) at 1uM” value was 1.43%. In the case of `COc1ccc(OC)c(C(c2c(C)[nH][nH]c2=O)c2c(C)[nH][nH]c2=O)c1`, the “hERG current change (%, negative = inhibition) at 1uM” value is reported as 22.8%. For `CC(C)Cn1c(-c2ccco2)csc1=Nc1cccnc1`, the “hERG current change (%, negative = inhibition) at 1uM” value was 12.3%. In the case of `O=C(NCc1ccco1)c1cc([N+](=O)[O-])ccc1N1CCCCC1`, the “hERG current change (%, negative = inhibition) at 1uM” value is reported as -17%. With `CC(C)C(=O)Nc1ccc(C(=O)N/N=C/c2cc(Br)cc(Br)c2O)cc1` the “hERG current change (%, negative = inhibition) at 1uM” value was 10.4%. `CCOc1cc(C=C2C(=O)NC(=O)NC2=O)ccc1OCC(=O)N1CCOCC1` was tested, and the “hERG current change (%, negative = inhibition) at 1uM” value was 6.58%. With `Nc1cc(S(=O)(=O)Nc2cc(Cl)ccc2Cl)ccc1N1CCCC1` the “hERG current change (%, negative = inhibition) at 1uM” value was 2.64%. For `O=C(COC(=O)/C=C/c1ccccc1[N+](=O)[O-])NCC1CCCO1` (stereo not drawn), the “hERG current change (%, negative = inhibition) at 1uM” value was 12.6%. In the case of `COc1ccc(/C=C2\S/C(=N/S(=O)(=O)c3cccs3)NC2=O)cc1`, the “hERG current change (%, negative = inhibition) at 1uM” value is reported as 15.9%. `CC1(C)CC1C(=O)Nc1ccc([N+](=O)[O-])cc1Br` (stereo not drawn) was tested, and the “hERG current change (%, negative = inhibition) at 1uM” value was -4.48%. With `Cc1ccc(C2C(C(=O)c3sc(C)nc3C)=C(O)C(=O)N2CCN2CCOCC2)o1` (stereo not drawn) the “hERG current change (%, negative = inhibition) at 1uM” value was 5.52%. In the case of `Cc1ccc(NC(=O)N/C=C/c2ccc(Cl)cc2)cc1`, the “hERG current change (%, negative = inhibition) at 1uM” value is reported as 21.7%. In the case of `COC(=O)C1=C(C)NC(=O)C1(NC(=O)c1cccnc1)C(F)(F)F` (stereo not drawn), the “hERG current change (%, negative = inhibition) at 1uM” value is reported as -6.62%. In the case of `CN1CCN(NC(=O)c2cccc(Br)c2)CC1`, the “hERG current change (%, negative = inhibition) at 1uM” value is reported as 10.3%. For `COc1cc(-c2nnc(-c3cccs3)o2)cc(OC)c1OC`, the “hERG current change (%, negative = inhibition) at 1uM” value was 22.9%. With `COc1ccc(NC2=C(NC(C)=O)C(=O)c3ccccc3C2=O)cc1` the “hERG current change (%, negative = inhibition) at 1uM” value was 20%. With `NC(=O)[C@@H]1CCCNc2c(I)cc([N+](=O)[O-])cc2C(=O)N[C@@H](CCC(=O)O)C(=O)N[C@@H](CO)C(=O)N1` the “hERG current change (%, negative = inhibition) at 1uM” value was 10.5%. In the case of `O=C(O)c1cnn(-c2nc(-c3ccc(Br)cc3)cs2)c1C(F)(F)F`, the “hERG current change (%, negative = inhibition) at 1uM” value is reported as 16.7%. For `O=C(O)c1cccc(N=C2NC(=O)C(CO)(CO)S2)c1`, the “hERG current change (%, negative = inhibition) at 1uM” value was 13.1%. `O=C(NCC1CCCO1)C(c1ccc(N2CCOCC2)cc1)N(C(=O)Cn1nnc2ccccc21)c1ccccc1F` (stereo not drawn) was tested, and the “hERG current change (%, negative = inhibition) at 1uM” value was 2.73%. For `COc1ccc(N2CCN(S(=O)(=O)c3cnc[nH]3)CC2)cc1`, the “hERG current change (%, negative = inhibition) at 1uM” value was 6.63%. `COCCN1C(=O)c2ccccc2C(C(=O)Nc2ccc3c(c2)OCCO3)C1c1ccc(F)cc1` (stereo not drawn) was tested, and the “hERG current change (%, negative = inhibition) at 1uM” value was 15.8%. With `COc1cccc(-c2nc(CS(=O)CC(=O)NCc3ccc4c(c3)OCO4)c(C)o2)c1` (stereo not drawn) the “hERG current change (%, negative = inhibition) at 1uM” value was 6.84%. With `Cc1ccc2c(c1)C1(OCCO1)C(=O)N2` the “hERG current change (%, negative = inhibition) at 1uM” value was 7.08%. For `CCCN1CCN(CCNC(=O)Nc2ccccc2Cl)CC1`, the “hERG current change (%, negative = inhibition) at 1uM” value was 14.6%. For `CCOC(=O)[C@@H]1[C@H]2COc3ccccc3[C@H]2N2C(=O)N(c3ccc(OC)cc3)C(=O)[C@]12C`, the “hERG current change (%, negative = inhibition) at 1uM” value was 5.61%. In the case of `CNc1nc(Nc2ccc([N+](=O)[O-])cc2)nc(OCC(F)(F)F)n1`, the “hERG current change (%, negative = inhibition) at 1uM” value is reported as 5.6%. For `N#Cc1c(NC(=O)c2ccccc2)sc2c1CCC2`, the “hERG current change (%, negative = inhibition) at 1uM” value was 5.67%. For `Cc1ccc(CN2CCSc3ccc(C(=O)NCCCN4CCN(C)CC4)cc32)cc1`, the “hERG current change (%, negative = inhibition) at 1uM” value was 6.29%. `O=C(CSc1nnc(Cc2cccs2)n1Cc1ccco1)Nc1cccc(Cl)c1` was tested, and the “hERG current change (%, negative = inhibition) at 1uM” value was -1.24%. In the case of `COc1cccc(/C(O)=C2/C(=O)C(=O)N(c3ccccn3)C2c2ccc(OC)c(OC)c2)c1` (stereo not drawn), the “hERG current change (%, negative = inhibition) at 1uM” value is reported as 17.1%. In the case of `Cc1ccccc1Nc1c(N)c(=O)oc2ccccc12`, the “hERG current change (%, negative = inhibition) at 1uM” value is reported as 3.96%. In the case of `Cc1nnc(CN(C)Cc2cn[nH]c2-c2ccc(-c3ccccc3)cc2)o1`, the “hERG current change (%, negative = inhibition) at 1uM” value is reported as 4.9%. `CCN(Cc1ccc(NC(C)=O)cc1)CC1CCCN(CCc2cccc(OC)c2)C1` (stereo not drawn) was tested, and the “hERG current change (%, negative = inhibition) at 1uM” value was 9.83%. With `CSc1nc(-c2ccccc2)nn1C(=O)c1ccc(C)cc1` the “hERG current change (%, negative = inhibition) at 1uM” value was 11.1%. For `COc1ccc(-c2cc(C(=O)N/N=C(\C)c3cccnc3)c3cc(C)ccc3n2)cc1OC`, the “hERG current change (%, negative = inhibition) at 1uM” value was 12.1%. `CCOC(=O)c1c(NC(=O)COC(=O)/C=C/c2ccco2)sc2c1CC(C)(C)NC2(C)C` was tested, and the “hERG current change (%, negative = inhibition) at 1uM” value was 8.84%. `COc1cccc(C(=O)C2CCCN(C(=O)CCC3=NNC(=O)CC3)C2)c1` (stereo not drawn) was tested, and the “hERG current change (%, negative = inhibition) at 1uM” value was 1.91%. For `C=CCSC1=N/C(=C\c2ccc(C(=O)O)cc2)C(=O)S1`, the “hERG current change (%, negative = inhibition) at 1uM” value was 14.6%. In the case of `O=S(=O)(c1cnc[nH]1)N1CCc2ccccc21`, the “hERG current change (%, negative = inhibition) at 1uM” value is reported as 10.4%. With `CC1=C(C(=O)N2CCCCC2)C(c2cccs2)C2=C(CCCC2=O)N1` (stereo not drawn) the “hERG current change (%, negative = inhibition) at 1uM” value was 11.3%. `Cc1ccccc1NC(=S)N1CCN(c2ccccc2Cl)CC1` was tested, and the “hERG current change (%, negative = inhibition) at 1uM” value was 8.24%. In the case of `Cc1ccc(NC(=O)Nc2cccn(Cc3c(F)cccc3Cl)c2=O)cc1`, the “hERG current change (%, negative = inhibition) at 1uM” value is reported as 13.2%. `CC(OC(=O)c1cc(S(=O)(=O)N2CCOCC2)ccc1F)C(=O)NC1CCCC1` (stereo not drawn) was tested, and the “hERG current change (%, negative = inhibition) at 1uM” value was 6.13%. `CCN1C[C@]2(COC(=O)c3ccccc3N)CC[C@H](OC)C34[C@@H]5C[C@H]6[C@H](OC)[C@@H]5[C@](O)(C[C@@H]6OC)[C@@](O)([C@H]13)[C@@H](OC)[C@@H]42` was tested, and the “hERG current change (%, negative = inhibition) at 1uM” value was 8.51%. In the case of `COc1ccc(NC(=O)CN(Cc2ccccc2)S(C)(=O)=O)cc1`, the “hERG current change (%, negative = inhibition) at 1uM” value is reported as 1.26%. With `CCCN1C(=O)/C(=C/c2ccc(C)o2)NC1=S` the “hERG current change (%, negative = inhibition) at 1uM” value was 11.5%. In the case of `C=CCOc1c(Br)cc(/C=C2/NC(=S)N(C(C)=O)C2=O)cc1OC`, the “hERG current change (%, negative = inhibition) at 1uM” value is reported as 14.9%. `Cn1c(O)c(N=NC(=O)CNC(=O)c2cccnc2)c2ccccc21` was tested, and the “hERG current change (%, negative = inhibition) at 1uM” value was 12.1%. For `COc1ccc(CC(=O)N/N=C/c2ccc(C)s2)cc1`, the “hERG current change (%, negative = inhibition) at 1uM” value was 13.9%. In the case of `O=C(NCc1ccccc1CN1CCCC1)c1ccc(OCc2cscn2)cc1`, the “hERG current change (%, negative = inhibition) at 1uM” value is reported as 4.27%. `CC(=O)N1CCN(c2ncnc3ccccc23)CC1` was tested, and the “hERG current change (%, negative = inhibition) at 1uM” value was 10.8%.
